Source: PMC10487795
Results are given in words; binding and its absence hold for the method and conditions named. In cells and extracts the contact can be indirect. Some binding calls cover weakened binding; strength is not graded here.

Amino acid sequences for entries named in this document (tags omitted).
UniProt P0C746: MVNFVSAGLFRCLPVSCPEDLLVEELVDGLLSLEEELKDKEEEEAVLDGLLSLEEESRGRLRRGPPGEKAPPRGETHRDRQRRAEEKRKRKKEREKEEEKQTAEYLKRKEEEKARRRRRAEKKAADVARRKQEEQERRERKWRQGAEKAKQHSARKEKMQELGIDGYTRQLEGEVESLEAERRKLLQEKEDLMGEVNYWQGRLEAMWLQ

How the values were obtained:
[1] = target: S-tagged HBZ (HTLV-1 basic leucine zipper factor) (HTLV-1) (UniProt P0C746); test: pull-down; affinity capture pull-down of HBZ with YBX1 deletion mutants (pCMV3 YBX1 constructs) in transfected cells; S beads, NP-40 lysis buffer
[2] = target: S-tagged HBZ (HTLV-1 basic leucine zipper factor) (HTLV-1) (UniProt P0C746); test: pull-down; HEK293T transfected with S-tagged HBZ or HBZ deletion mutants; NP-40 lysates rocked with S beads overnight at 4 °C, washed twice; immunoblot for YBX1 and S-tag
[3] = target: HBZ (HTLV-1 basic leucine zipper factor), expressed in HTLV-1-infected T-cell lines (HTLV-1 (expressed in PBL-HTLV-1, SLB-1, ATL-ED, TL-Om1)) (UniProt P0C746); test: co-IP; lysates of HTLV-1-infected T-cell lines (PBL-HTLV-1, SLB-1, ATL-ED, TL-Om1) in NP-40 lysis buffer (150 mM NaCl, 1% NP-40, 50 mM Tris-Cl pH 8.0); IP overnight at 4 °C with HBZ antisera, Tax antibody or control rabbit IgG, Dynabeads Protein G; immunoblot
[4] = target: Tax (transactivator from the X region), expressed in HTLV-1-infected T-cell lines (HTLV-1 (expressed in PBL-HTLV-1, SLB-1)) (UniProt P03409); test: as above

Substance	binding [1]	binding [2]	binding [3]	binding [4]
YBX1 ∆A/P (∆1–55) (from UniProt P67809 56-324) (domain or fragment)	binds			
Y-box binding protein (YBX1) (from UniProt P67809 1-324)		binds	binds	binds
HBZ (HTLV-1 basic leucine zipper factor), expressed in HTLV-1-infected T-cell lines (from UniProt P0C746 1-209)				binds weakly
YBX1 ∆CTD (∆129–324) (from UniProt P67809 1-128) (domain or fragment)	no binding			
YBX1 ∆CSD (∆56–128) (from UniProt P67809 1-324)	binds			
